Results from patent publication US8415399B2, “Retrovirus-infection inhibitor” (Nagasaki University, priority 2006, dated 2013).

System: VSV-G protein (VSV vector)
Format: cell-based, vesicular stomatitis virus (VSV)

With `CC(C)=CCC/C(C)=C/CC/C(C)=C/C=C/C(C)=C/C(=O)O` [NIK-333] as the compound, how does the “infection with VSV-G protein” value read?
The value was “suppressed”.
